In the supplement of paper PMC8728848:
The list shows a part of the results.

What was measured:
Assay in all cases: glycan array binding signal (z-score within array); higher = stronger binding
Details in all cases: glycan notation: IUPAC condensed, linker removed; mutation: Y228W
Fuc(a1-2)Gal = molecular target: Fuc(a1-2)Gal
How it was run: (§1)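 Glycan array binding is given as a within-array Z-score, which can be read as non-binding when negative. The arrays, 3228 of them, came from the Consortium for Functional Glycomics database and were retained only where the protein sequence was available. Z-scores were averaged across arrays of the same protein sequence at different concentrations or buffers and across linkers.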

Fuc(a1-2)Gal(b1-3)GalNAc = molecular target: Fuc(a1-2)Gal(b1-3)GalNAc
How it was run: as §1

[1] = molecular target: Fuc(a1-2)Gal(b1-3)GalNAc(a1-3)[Fuc(a1-2)]Gal(b1-4)Glc
How it was run: as §1

[2] = molecular target: Fuc(a1-2)Gal(b1-3)GalNAc(a1-3)[Fuc(a1-2)]Gal(b1-4)GlcNAc
How it was run: as §1

[3] = molecular target: Fuc(a1-2)Gal(b1-3)GalNAc(b1-3)Gal
How it was run: as §1

[4] = molecular target: Fuc(a1-2)Gal(b1-3)GalNAc(b1-3)Gal(a1-4)Gal(b1-4)Glc
How it was run: as §1

[5] = molecular target: Fuc(a1-2)Gal(b1-3)GalNAc(b1-4)[Neu5Ac(a2-3)]Gal(b1-4)Glc
How it was run: as §1

Fuc(a1-2)Gal(b1-3)GlcNAc = molecular target: Fuc(a1-2)Gal(b1-3)GlcNAc
How it was run: as §1

[6] = molecular target: Fuc(a1-2)Gal(b1-3)GlcNAc(b1-2)Man(a1-3)[Fuc(a1-2)Gal(b1-3)GlcNAc(b1-2)Man(a1-6)]Man(b1-4)GlcNAc(b1-4)GlcNAc
How it was run: as §1

[7] = molecular target: Fuc(a1-2)Gal(b1-3)GlcNAc(b1-2)Man(a1-3)[Fuc(a1-2)Gal(b1-3)GlcNAc(b1-2)Man(a1-6)]Man(b1-4)GlcNAc(b1-4)[Fuc(a1-6)]GlcNAc
How it was run: as §1

[8] = molecular target: Fuc(a1-2)Gal(b1-3)GlcNAc(b1-3)Gal(b1-4)Glc
How it was run: as §1

[9] = molecular target: Fuc(a1-2)Gal(b1-3)GlcNAc(b1-3)GalNAc
How it was run: as §1

[10] = molecular target: Fuc(a1-2)Gal(b1-3)GlcNAc(b1-3)[Fuc(a1-2)Gal(b1-3)GlcNAc(b1-6)]GalNAc
How it was run: as §1

[11] = molecular target: Fuc(a1-2)Gal(b1-3)GlcNAc(b1-3)[Gal(b1-4)GlcNAc(b1-6)]Gal(b1-4)Glc
How it was run: as §1

[12] = molecular target: Fuc(a1-2)Gal(b1-3)GlcNAc(b1-3)[Neu5Ac(a2-6)Gal(b1-4)GlcNAc(b1-6)]Gal(b1-4)Glc
How it was run: as §1

[13] = molecular target: Fuc(a1-2)Gal(b1-3)GlcNAc6S
How it was run: as §1

[14] = molecular target: Fuc(a1-2)Gal(b1-3)[Fuc(a1-4)]GlcNAc
How it was run: as §1

[15] = molecular target: Fuc(a1-2)Gal(b1-3)[Fuc(a1-4)]GlcNAc(b1-2)Man(a1-3)[Fuc(a1-2)Gal(b1-3)[Fuc(a1-4)]GlcNAc(b1-2)Man(a1-3)]Man(b1-4)GlcNAc(b1-4)GlcNAc
How it was run: as §1

[16] = molecular target: Fuc(a1-2)Gal(b1-3)[Fuc(a1-4)]GlcNAc(b1-2)Man(a1-3)[Fuc(a1-2)Gal(b1-3)[Fuc(a1-4)]GlcNAc(b1-2)Man(a1-6)]Man(b1-4)GlcNAc(b1-4)[Fuc(a1-6)]GlcNAc(b1-4)[Fuc(a1-6)]GlcNAc
How it was run: as §1

[17] = molecular target: Fuc(a1-2)Gal(b1-3)[Fuc(a1-4)]GlcNAc(b1-3)[Fuc(a1-3)[Gal(b1-4)]GlcNAc(b1-6)]Gal(b1-4)Glc
How it was run: as §1

[18] = molecular target: Fuc(a1-2)Gal(b1-3)[Fuc(a1-4)]GlcNAc(b1-3)[Gal(b1-4)GlcNAc(b1-6)]Gal(b1-4)Glc
How it was run: as §1

[19] = molecular target: Fuc(a1-2)Gal(b1-4)Fuc(a1-3)]GlcNAc(b1-2)Man(a1-3)[Fuc(a1-2)Gal(b1-4)[Fuc(a1-3)]GlcNAc(b1-2)Man(a1-6)]Man(b1-4)GlcNAc(b1-4)GlcNAc
How it was run: as §1

Fuc(a1-2)Gal(b1-4)Glc = molecular target: Fuc(a1-2)Gal(b1-4)Glc
How it was run: as §1

Fuc(a1-2)Gal(b1-4)Glc6S = molecular target: Fuc(a1-2)Gal(b1-4)Glc6S
How it was run: as §1

Fuc(a1-2)Gal(b1-4)GlcNAc = molecular target: Fuc(a1-2)Gal(b1-4)GlcNAc
How it was run: as §1

[20] = molecular target: Fuc(a1-2)Gal(b1-4)GlcNAc(b1-2)Man
How it was run: as §1

[21] = molecular target: Fuc(a1-2)Gal(b1-4)GlcNAc(b1-2)Man(a1-3)[Fuc(a1-2)Gal(b1-4)GlcNAc(b1-2)Man(a1-6)]Man(b1-4)GlcNAc(b1-4)GlcNAc
How it was run: as §1

[22] = molecular target: Fuc(a1-2)Gal(b1-4)GlcNAc(b1-2)Man(a1-3)[Fuc(a1-2)Gal(b1-4)GlcNAc(b1-2)Man(a1-6)]Man(b1-4)GlcNAc(b1-4)[Fuc(a1-6)]GlcNAc
How it was run: as §1

[23] = molecular target: Fuc(a1-2)Gal(b1-4)GlcNAc(b1-2)[Fuc(a1-2)Gal(b1-4)GlcNAc(b1-4)]Man(a1-3)[Fuc(a1-2)Gal(b1-4)GlcNAc(b1-2)Man(a1-6)]Man(b1-4)GlcNAc(b1-4)GlcNAc
How it was run: as §1

[24] = molecular target: Fuc(a1-2)Gal(b1-4)GlcNAc(b1-3)Gal(b1-4)GlcNAc
How it was run: as §1

B1: Epa1-NP-mutant-Y228W (Candida glabrata), Q6VBJ0 (protein)
chain: MILNPALFLNKCVCIYTTLILLLLTNGGYATSSNDISLASKDPTTFPLGCSPDITTPKKGLSMELYSYDFRKKGSYPCWDAAYLDPNYPRTGYKSHRLLAKVDGVTGNINFYYHATKGCTPQLGHLPASYNYPKPLTMTNFTMLLYGYFRPKVTGFHTFTISADDLLFVNFGAGNAFDCCRRDSSADHFGNYQAYAIWGSKTAKDELTVHLDAGVYYPIRLFYNNREWDGALSFTFKTESNENTVSDFSEYFFSLDDTEEGCPGLISYDSSCASVKTSKIIGIDYHTETPNENLVPITKTIYHLGIPCTGTTTTPLCGSGFYDPLANKCVTINTSSTSSVTKTTSHTTSKEVSFHSSISSQKTLIPKSIPSPYGPIKSQSIPTEMETSSEISSSEYAFSDVISTPSHSPYTKKHSSLNSSSYTSTVIHSLTSYSISQGIFSTSLSEQNITSKSSTDKFSTATSMSNNITQSSIIISQFSTNNENYTTTSMHTSSDKISTETLNNSISTTTSILFSNSSTILKNNTTIISSDKDTHYHPVNPTIVCSTNKTEIICASITQPSISNSNNHWSSSVLKFNSTTVRSTLPSSAGSNETSINVPFSSSTESNTSTSSTSTSNSKMVRSTLPSSAGSNETSISVPFSSSTESNTSTSSTSTSNSKMVRSTLPSSAGSNETSINVPFSSSTESNTSTSSTSTSNSKTVRSTPFSSAGIIMTSLSQRNNKSASSYASSNSKCYNTADSCRKVHSTPSYLLTSSYTSEGVDYDCSLVSTKLKINDTNCVNNKHTTKSCLKTSVTTTIPTLEIKTARKSSSNTIGLHSYPTSSPNKSISSAPIIGYISSFKTIKTASPSYQTSDLTTITTITSLNNPGSTAVENTHESNDKSRKTSSNDISSKHSVIKETKDAVESSNKSHQTNTLKCSSIIIASSSHNSYESLGGTTLTLTLSKVYSPQNNDTLPFLEISEVNPSRTVLPESSKMMQYLTSTEERNKTARNTIATNIVSISTFHFEGEGNAIRMGYTQLLLMLIGIIVMNIGT
- glycan array binding signal (z-score) (Fuc(a1-2)Gal): -0.022
- glycan array binding signal (z-score) (Fuc(a1-2)Gal(b1-3)GalNAc): -0.261
- glycan array binding signal (z-score) [1]: -0.4
- glycan array binding signal (z-score) [2]: -0.325
- glycan array binding signal (z-score) [3]: -0.075
- glycan array binding signal (z-score) [4]: -0.25
- glycan array binding signal (z-score) [5]: -0.209
- glycan array binding signal (z-score) (Fuc(a1-2)Gal(b1-3)GlcNAc): -0.197
- glycan array binding signal (z-score) [6]: 0.085
- glycan array binding signal (z-score) [7]: 0.137
- glycan array binding signal (z-score) [8]: -0.304
- glycan array binding signal (z-score) [9]: -0.155
- glycan array binding signal (z-score) [10]: -0.183
- glycan array binding signal (z-score) [11]: -0.132
- glycan array binding signal (z-score) [12]: -0.437
- glycan array binding signal (z-score) [13]: -0.24
- glycan array binding signal (z-score) [14]: -0.345
- glycan array binding signal (z-score) [15]: 0.401
- glycan array binding signal (z-score) [16]: -0.08
- glycan array binding signal (z-score) [17]: -0.48
- glycan array binding signal (z-score) [18]: 0.072
- glycan array binding signal (z-score) [19]: 0.469
- glycan array binding signal (z-score) (Fuc(a1-2)Gal(b1-4)Glc): -0.146
- glycan array binding signal (z-score) (Fuc(a1-2)Gal(b1-4)Glc6S): -0.195
- glycan array binding signal (z-score) (Fuc(a1-2)Gal(b1-4)GlcNAc): 0.021
- glycan array binding signal (z-score) [20]: -0.154
- glycan array binding signal (z-score) [21]: -0.158
- glycan array binding signal (z-score) [22]: -0.202
- glycan array binding signal (z-score) [23]: 0.052
- glycan array binding signal (z-score) [24]: -0.257
